Test [1] addresses Dicer-like 4 (DCL4), full-length, fused to the N- or C-terminal portion of YFP (BiFC) (UniProt P84634). As to the kind of experiment: split reporter; BiFC of YFP (YN + YC fusions) in N. benthamiana leaf epidermal cells, agroinfiltration, confocal microscopy 48 h post-infiltration.
For test [2], the target named is T1, SnRK1.2 (SNF1-related kinase 1), full-length, yeast two-hybrid fusion (Arabidopsis) (UniProt P92958).
T1 sequence: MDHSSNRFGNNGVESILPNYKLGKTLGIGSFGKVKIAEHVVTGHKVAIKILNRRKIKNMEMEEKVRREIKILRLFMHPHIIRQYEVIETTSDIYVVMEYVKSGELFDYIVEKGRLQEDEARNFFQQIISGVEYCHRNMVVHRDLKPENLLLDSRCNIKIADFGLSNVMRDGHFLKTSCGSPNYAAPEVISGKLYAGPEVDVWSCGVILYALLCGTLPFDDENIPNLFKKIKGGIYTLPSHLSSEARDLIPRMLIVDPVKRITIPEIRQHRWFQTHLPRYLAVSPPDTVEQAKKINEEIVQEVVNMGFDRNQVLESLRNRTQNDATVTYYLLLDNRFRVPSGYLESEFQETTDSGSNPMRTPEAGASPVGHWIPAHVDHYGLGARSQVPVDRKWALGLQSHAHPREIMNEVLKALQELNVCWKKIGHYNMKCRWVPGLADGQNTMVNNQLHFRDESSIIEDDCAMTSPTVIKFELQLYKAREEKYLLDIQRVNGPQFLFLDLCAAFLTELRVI
As to the kind of experiment: two-hybrid; baits as GAL4 DNA binding domain fusions, preys as GAL4 activation domain fusions, yeast Y190; growth on medium lacking histidine with 50 mM aminotriazole; LacZ filter-lift assay.

Protein sequences, listed by entry. Tags and fused reporters are not part of them.
UniProt P84634: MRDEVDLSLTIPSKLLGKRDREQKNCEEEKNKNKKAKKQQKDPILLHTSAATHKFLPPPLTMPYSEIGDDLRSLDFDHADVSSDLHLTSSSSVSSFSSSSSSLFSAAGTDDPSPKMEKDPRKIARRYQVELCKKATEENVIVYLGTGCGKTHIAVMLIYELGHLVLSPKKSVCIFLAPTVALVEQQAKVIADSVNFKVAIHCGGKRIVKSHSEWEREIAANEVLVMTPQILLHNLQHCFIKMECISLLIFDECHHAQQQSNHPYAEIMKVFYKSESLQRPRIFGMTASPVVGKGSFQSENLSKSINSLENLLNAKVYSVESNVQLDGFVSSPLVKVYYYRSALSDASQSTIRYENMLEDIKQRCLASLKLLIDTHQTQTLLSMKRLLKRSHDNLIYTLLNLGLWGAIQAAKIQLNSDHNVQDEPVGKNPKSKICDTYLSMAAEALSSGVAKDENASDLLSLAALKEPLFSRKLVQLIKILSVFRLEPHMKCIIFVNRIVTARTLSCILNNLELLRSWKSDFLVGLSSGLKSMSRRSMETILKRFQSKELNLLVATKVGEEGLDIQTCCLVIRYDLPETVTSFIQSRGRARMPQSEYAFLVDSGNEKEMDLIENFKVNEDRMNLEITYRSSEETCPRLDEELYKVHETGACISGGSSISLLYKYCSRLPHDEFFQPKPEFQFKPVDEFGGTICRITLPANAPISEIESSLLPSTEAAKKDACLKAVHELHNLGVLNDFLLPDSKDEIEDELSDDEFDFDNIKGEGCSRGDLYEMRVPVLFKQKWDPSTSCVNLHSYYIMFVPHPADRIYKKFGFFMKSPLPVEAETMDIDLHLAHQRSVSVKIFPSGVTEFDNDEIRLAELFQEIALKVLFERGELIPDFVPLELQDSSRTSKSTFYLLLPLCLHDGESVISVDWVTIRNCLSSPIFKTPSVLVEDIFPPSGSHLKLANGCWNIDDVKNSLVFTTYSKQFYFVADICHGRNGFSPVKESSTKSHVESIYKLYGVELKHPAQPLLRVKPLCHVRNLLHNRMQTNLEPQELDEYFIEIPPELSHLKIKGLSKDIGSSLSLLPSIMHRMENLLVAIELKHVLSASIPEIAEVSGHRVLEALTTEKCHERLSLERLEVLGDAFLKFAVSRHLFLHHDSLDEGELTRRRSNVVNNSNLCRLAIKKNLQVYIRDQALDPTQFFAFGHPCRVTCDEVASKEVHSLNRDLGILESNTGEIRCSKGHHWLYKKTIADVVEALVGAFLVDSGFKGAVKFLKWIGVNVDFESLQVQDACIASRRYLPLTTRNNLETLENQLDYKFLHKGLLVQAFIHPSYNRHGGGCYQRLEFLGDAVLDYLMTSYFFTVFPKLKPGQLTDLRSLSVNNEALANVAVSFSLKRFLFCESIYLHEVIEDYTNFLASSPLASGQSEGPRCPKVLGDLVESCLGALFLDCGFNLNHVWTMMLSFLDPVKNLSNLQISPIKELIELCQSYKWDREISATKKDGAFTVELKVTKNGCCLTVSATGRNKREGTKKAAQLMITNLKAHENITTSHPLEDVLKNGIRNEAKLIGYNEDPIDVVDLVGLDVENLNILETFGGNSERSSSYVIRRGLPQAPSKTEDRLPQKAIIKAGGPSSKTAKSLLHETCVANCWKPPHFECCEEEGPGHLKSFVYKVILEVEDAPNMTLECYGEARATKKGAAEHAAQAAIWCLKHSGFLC
UniProt Q9LZG0: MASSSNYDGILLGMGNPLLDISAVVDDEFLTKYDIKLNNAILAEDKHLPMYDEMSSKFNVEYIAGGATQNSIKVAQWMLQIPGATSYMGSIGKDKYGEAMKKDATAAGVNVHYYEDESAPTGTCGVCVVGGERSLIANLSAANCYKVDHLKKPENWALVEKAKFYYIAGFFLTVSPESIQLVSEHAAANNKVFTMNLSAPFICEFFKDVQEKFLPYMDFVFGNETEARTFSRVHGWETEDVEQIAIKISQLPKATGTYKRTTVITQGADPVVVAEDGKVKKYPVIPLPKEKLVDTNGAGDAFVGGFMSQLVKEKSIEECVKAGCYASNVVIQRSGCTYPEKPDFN

Test [3] addresses T2, SnRK1.2 kinase domain (SnRK1-KD; amino acids 1-343), yeast two-hybrid fusion (Arabidopsis) (UniProt P92958).
T2 sequence: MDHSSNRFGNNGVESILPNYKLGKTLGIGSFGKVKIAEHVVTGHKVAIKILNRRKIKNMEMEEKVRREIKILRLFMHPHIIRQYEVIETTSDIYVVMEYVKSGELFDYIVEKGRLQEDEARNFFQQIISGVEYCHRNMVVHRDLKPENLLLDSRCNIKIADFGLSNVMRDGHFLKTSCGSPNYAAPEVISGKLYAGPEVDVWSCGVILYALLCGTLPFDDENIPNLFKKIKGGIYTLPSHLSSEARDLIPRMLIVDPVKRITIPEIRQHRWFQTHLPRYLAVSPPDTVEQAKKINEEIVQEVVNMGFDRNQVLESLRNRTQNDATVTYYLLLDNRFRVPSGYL
Described as above.

Test [4] deals with T3, dsRNA binding protein 4 (DRB4), full-length, fused to the N- or C-terminal portion of YFP (BiFC) (UniProt Q8H1D4).
T3 sequence: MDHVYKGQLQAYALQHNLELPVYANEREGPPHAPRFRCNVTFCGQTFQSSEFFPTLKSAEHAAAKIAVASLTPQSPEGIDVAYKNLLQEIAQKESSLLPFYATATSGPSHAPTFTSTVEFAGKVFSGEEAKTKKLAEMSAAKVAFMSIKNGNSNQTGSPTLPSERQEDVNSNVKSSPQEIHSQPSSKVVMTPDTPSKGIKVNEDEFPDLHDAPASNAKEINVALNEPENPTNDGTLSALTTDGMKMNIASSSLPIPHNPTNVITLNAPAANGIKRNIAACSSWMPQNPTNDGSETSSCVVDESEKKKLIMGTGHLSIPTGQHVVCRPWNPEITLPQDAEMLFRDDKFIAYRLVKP
As to the kind of experiment: split reporter; BiFC of YFP (YN + YC fusions) in N. benthamiana leaf epidermal cells, agroinfiltration, confocal microscopy 48 h post-infiltration.

No constants are given. Whether binding was seen depends on the method and setting. For some of these results: Binding seen in cells or lysates may run through a third protein. Some entries that bind do so weakly or less than the wild type. For some of these results: Where a sequence is shown, tags or fusion partners need not be part of it.

As to “Adenosine kinase 2 (ADK2), full-length, fused to the N- or C-terminal portion of YFP (BiFC) (from UniProt Q9LZG0 1-345) (enzyme)”, the binding entry in test [1] is “no binding”.
In the case of “Adenosine kinase 2 (ADK2), yeast two-hybrid fusion (from UniProt Q9LZG0 1-345) (enzyme)”, the binding result in test [2] and in test [3] was “binds” in each case.
Turning to “Dicer-like 4 (DCL4), full-length, fused to the N- or C-terminal portion of YFP (BiFC) (from UniProt P84634 1-1702) (enzyme)”, in test [4], the binding result is reported as “binds”.

The record behind these values is article PMC3907550.
